Data from the supplement of paper PMC12217912.
The list shows a part of the results. Sequences were assembled here from the parent chain. Values near 0.05 are background.

B1: TEV protease; numbered along this chain (parent)
chain: MGESLFKGPRDYNPISSSICHLTNESDGHTTSLYGIGFGPFIITNKHLFRRNNGTLVVQSLHGVFKVKDTTTLQQHLVDGRDMIIIRMPKDFPPFPQKLKFREPQREERICLVTTNFQTKSMSSMVSDTSCTFPSGDGIFWKHWIQTKDGQCGSPLVSTRDGFIVGIHSASNFTNTNNYFTSVPKNFMELLTNQEAQQWVSGWRLNADSVLWGGHKVFMVKPEEPFQPVKEATQL

Variants of: B1
Test: raw area under fraction-flipped curve 0-4 h after induction (AUC4h, not background-subtracted), DNA-recorder readout of cleavage of the substrate (dimensionless); higher = more cleavage of the substrate by the protease variant
Conditions: temperature: 34 °C; time window: 0-4 h after rhamnose induction
Protocol: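 In vivo DNA recorder in E. coli TOP10(DE3) ΔrhaA at 34 °C. Each TEVp single-site mutant (parent TEVp 0) is paired with a single-site variant of the 7-mer TEVs (canonical ENLYFQ|S). The substrate sits between flexible linkers in a Bxb1-sfGFP-TEVs-SsrA fusion, so cleavage stabilises Bxb1 and speeds flipping of a recombination array, read by NGS. The value is the raw area under the fraction-flipped curve over 0-4 h after rhamnose induction (AUC4h), with ≥20 reads per time point. It is not background-subtracted; inactive controls average about 0.047.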
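Further: Bxb1 expression induced with 0.2% (w/v) L-rhamnose at OD600 near 0.5, cultures sampled hourly, flipped fraction per protease–substrate barcode pair counted by paired-end Illumina sequencing.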

For MGESLFKGPRDYNPISSSICHLTNESDGHTTSLYGIGFGPFIITNKHLFRRNNGTLVVQSLHGVFKVKDTTTLQQHLVDGRDMIIIRMPKDFPPFPQKLKFREPQREERICLVTTNFQTKSMSSMVSDTSCTFPSGDGIFWKHWIQTKDGQCGSPLVSTRDGFIVGIHSASNFTNTNNYFTSVPKNFMELLTNQEAQQWVSGWRLNADSVLWGGHKVFMVKPEEPKQPVKEATQL [F226K], the “area with substrate ENLYAQS” value was 0.125, the “area with substrate ENLYCQS” value was 0.0822 and the “area with substrate ENLYDQS” value was 0.0645. For the same variant, the “area with substrate ENLYEQS” value was 0.061, the “area with substrate ENLYGQS” value was 0.077 and the “area with substrate ENLYHQS” value was 0.0731. For the same variant, the “area with substrate ENLYIQS” value was 0.118, the “area with substrate ENLYKQS” value was 0.0552 and the “area with substrate ENLYLQS” value was 0.0734. For the same variant, the “area with substrate ENLYMQS” value was 0.0726, the “area with substrate ENLYNQS” value was 0.0658 and the “area with substrate ENLYPQS” value was 0.0748. The “area with substrate ENLYQQS” value was 0.0384, the “area with substrate ENLYRQS” value was 0.0766 and the “area with substrate ENLYSQS” value was 0.0715. The “area with substrate ENLYVQS” value was 0.12 and the “area with substrate ENLYWQS” value was 0.101.

For MGESLFKGPRDYNPISSSICHLTNESDGHTTSLYGIGFGPFIITNKHLFRRNNGTLVVQSLHGVTKVKDTTTLQQHLVDGRDMIIIRMPKDFPPFPQKLKFREPQREERICLVTTNFQTKSMSSMVSDTSCTFPSGDGIFWKHWIQTKDGQCGSPLVSTRDGFIVGIHSASNFTNTNNYFTSVPKNFMELLTNQEAQQWVSGWRLNADSVLWGGHKVFMVKPEEPFQPVKEATQL [F65T], the “area with substrate ENLYAQS” value was 0.07, the “area with substrate ENLYCQS” value was 0.005 and the “area with substrate ENLYDQS” value was 0.0653. For the same variant, the “area with substrate ENLYEQS” value was 0.0637, the “area with substrate ENLYGQS” value was 0.044 and the “area with substrate ENLYHQS” value was 0.0669. The “area with substrate ENLYLQS” value was 0.0758, the “area with substrate ENLYMQS” value was 0.0852 and the “area with substrate ENLYNQS” value was 0.0687. For the same variant, the “area with substrate ENLYQQS” value was 0.0564, the “area with substrate ENLYSQS” value was 0.0653 and the “area with substrate ENLYTQS” value was 0.0685. For the same variant, the “area with substrate ENLYVQS” value was 0.116.

For MGESLFKGPRDYNPISSSICHLTNESDGHTTSLYGIGFGPFIITNKHLFRRNNGTLVVQSLHGVFKVKDTTTLQQHLVDGRDMIIIRMPKDFPPFPQKLKFREPQREERICLVTTNFQTKSMSSMVSDTSCTFPSGDGIFWKHWIQTKDGQCGSPLVSTRDGFIVGIHSASNLTNTNNYFTSVPKNFMELLTNQEAQQWVSGWRLNADSVLWGGHKVFMVKPEEPFQPVKEATQL [F173L], the “area with substrate ENLYAQS” value was 0.0771, the “area with substrate ENLYDQS” value was 0.0638 and the “area with substrate ENLYEQS” value was 0.0969. The “area with substrate ENLYGQS” value was 0.0745, the “area with substrate ENLYHQS” value was 0.0845 and the “area with substrate ENLYIQS” value was 0.115. The “area with substrate ENLYKQS” value was 0.0729, the “area with substrate ENLYNQS” value was 0.0614 and the “area with substrate ENLYPQS” value was 0.0721. For the same variant, the “area with substrate ENLYQQS” value was 0.0684 and the “area with substrate ENLYWQS” value was 0.0794.

With MGESLFKGPRDYNPISSSICHLTNESDGHTTSLYGIGFGPFIITNKHLFRRNNGTLVVQSLHGVFKVKDTTTLQQHLVDGRDMIIIRMPKDFPPFPQKLKFREPQREERICLVTTNFQTKSMSSMVSDTSCTFPSGDGIFWKHWIQTKDGQCGSPLVSTRDGFIVGIHSASNFTNTNNYFTSVPKNFMELLTNQEAQQWVSGWRLNADSVLDGGHKVFMVKPEEPFQPVKEATQL [W212D] the “area with substrate ENLYAQS” value was 0.0616, the “area with substrate ENLYCQS” value was 0.0669 and the “area with substrate ENLYDQS” value was 0.0525. The “area with substrate ENLYGQS” value was 0.0528, the “area with substrate ENLYHQS” value was 0.0562 and the “area with substrate ENLYKQS” value was 0.0114. The “area with substrate ENLYLQS” value was 0.0685, the “area with substrate ENLYPQS” value was 0.0565 and the “area with substrate ENLYQQS” value was 0.0592. The “area with substrate ENLYRQS” value was 0.0706, the “area with substrate ENLYSQS” value was 0.0483 and the “area with substrate ENLYVQS” value was 0.0515. For the same variant, the “area with substrate ENLYWQS” value was 0.0563 and the “area with substrate ENLYYQS” value was 0.108.

In the case of MGESLFKGPRDYNPISSSICHLTNESDGHTTSLYGIGFGPFIITNKHLFRRNNGTLVVQSLHGVFKVKDTTTLQQHLVDGRDMIIIRMPKDFPPFPQKLSFREPQREERICLVTTNFQTKSMSSMVSDTSCTFPSGDGIFWKHWIQTKDGQCGSPLVSTRDGFIVGIHSASNFTNTNNYFTSVPKNFMELLTNQEAQQWVSGWRLNADSVLWGGHKVFMVKPEEPFQPVKEATQL [K100S], the “area with substrate ENLYAQS” value is reported as 0.0675, the “area with substrate ENLYDQS” value is reported as 0.0576 and the “area with substrate ENLYEQS” value is reported as 0.0643. The “area with substrate ENLYGQS” value was 0.0998, the “area with substrate ENLYHQS” value was 0.0623 and the “area with substrate ENLYIQS” value was 0.0738. For the same variant, the “area with substrate ENLYKQS” value was 0.0567, the “area with substrate ENLYMQS” value was 0.096 and the “area with substrate ENLYNQS” value was 0.0541. The “area with substrate ENLYPQS” value was 0.0676, the “area with substrate ENLYQQS” value was 0.0312 and the “area with substrate ENLYRQS” value was 0.0594. For the same variant, the “area with substrate ENLYTQS” value was 0.09, the “area with substrate ENLYWQS” value was 0.0671 and the “area with substrate ENLYYQS” value was 0.0528.

In the case of MGESLFKGPRDYNPISSSICHLTNESDGHTTSLYGIGFGPFIITNKHLFRRNNGTLVVQSLHGVFKVKDTTTLQQHLVDGRDMIIIRMPKDFPPFPQKLKFREPQREERICLVTTNFQTKSMSSMVSDTSCTFPYGDGIFWKHWIQTKDGQCGSPLVSTRDGFIVGIHSASNFTNTNNYFTSVPKNFMELLTNQEAQQWVSGWRLNADSVLWGGHKVFMVKPEEPFQPVKEATQL [S135Y], the “area with substrate ENLYAQS” value is reported as 0.061, the “area with substrate ENLYCQS” value is reported as 0.0758 and the “area with substrate ENLYDQS” value is reported as 0.0622. The “area with substrate ENLYEQS” value was 0.0708, the “area with substrate ENLYGQS” value was 0.0569 and the “area with substrate ENLYHQS” value was 0.058. For the same variant, the “area with substrate ENLYIQS” value was 0.0648, the “area with substrate ENLYKQS” value was 0.0657 and the “area with substrate ENLYLQS” value was 0.0596. For the same variant, the “area with substrate ENLYPQS” value was 0.0647, the “area with substrate ENLYRQS” value was 0.0615 and the “area with substrate ENLYSQS” value was 0.0556. The “area with substrate ENLYTQS” value was 0.0539 and the “area with substrate ENLYWQS” value was 0.0477.

In the case of MGESLFKGPRDYNPISSSICHLTNESDGHTTSLYGIGFGPFIITNKHLFRRNNGTLVVQSLHGVFKVKDTTTLQQHLVDGRDMCIIRMPKDFPPFPQKLKFREPQREERICLVTTNFQTKSMSSMVSDTSCTFPSGDGIFWKHWIQTKDGQCGSPLVSTRDGFIVGIHSASNFTNTNNYFTSVPKNFMELLTNQEAQQWVSGWRLNADSVLWGGHKVFMVKPEEPFQPVKEATQL [I84C], the “area with substrate ENLYAQS” value is reported as 0.0803, the “area with substrate ENLYCQS” value is reported as 0.0721 and the “area with substrate ENLYDQS” value is reported as 0.053. For the same variant, the “area with substrate ENLYEQS” value was 0.065, the “area with substrate ENLYGQS” value was 0.0709 and the “area with substrate ENLYHQS” value was 0.0737. The “area with substrate ENLYIQS” value was 0.111, the “area with substrate ENLYKQS” value was 0.0882 and the “area with substrate ENLYNQS” value was 0.0762. The “area with substrate ENLYPQS” value was 0.0957, the “area with substrate ENLYQQS” value was 0.0741 and the “area with substrate ENLYRQS” value was 0.0495.

For MGESLFKGPRDYNPISSSITHLTNESDGHTTSLYGIGFGPFIITNKHLFRRNNGTLVVQSLHGVFKVKDTTTLQQHLVDGRDMIIIRMPKDFPPFPQKLKFREPQREERICLVTTNFQTKSMSSMVSDTSCTFPSGDGIFWKHWIQTKDGQCGSPLVSTRDGFIVGIHSASNFTNTNNYFTSVPKNFMELLTNQEAQQWVSGWRLNADSVLWGGHKVFMVKPEEPFQPVKEATQL [C20T], the “area with substrate ENLYAQS” value was 0.0701, the “area with substrate ENLYCQS” value was 0.0716 and the “area with substrate ENLYDQS” value was 0.0496. The “area with substrate ENLYEQS” value was 0.0431, the “area with substrate ENLYGQS” value was 0.0583 and the “area with substrate ENLYHQS” value was 0.0698. For the same variant, the “area with substrate ENLYIQS” value was 0.115, the “area with substrate ENLYKQS” value was 0.0608 and the “area with substrate ENLYLQS” value was 0.0732. The “area with substrate ENLYMQS” value was 0.0875, the “area with substrate ENLYNQS” value was 0.0631 and the “area with substrate ENLYPQS” value was 0.0794. The “area with substrate ENLYQQS” value was 0.0541, the “area with substrate ENLYRQS” value was 0.042 and the “area with substrate ENLYSQS” value was 0.0574. The “area with substrate ENLYVQS” value was 0.117 and the “area with substrate ENLYWQS” value was 0.0793.

With MGESLFKGPRDYNPISSSIHHLTNESDGHTTSLYGIGFGPFIITNKHLFRRNNGTLVVQSLHGVFKVKDTTTLQQHLVDGRDMIIIRMPKDFPPFPQKLKFREPQREERICLVTTNFQTKSMSSMVSDTSCTFPSGDGIFWKHWIQTKDGQCGSPLVSTRDGFIVGIHSASNFTNTNNYFTSVPKNFMELLTNQEAQQWVSGWRLNADSVLWGGHKVFMVKPEEPFQPVKEATQL [C20H] the “area with substrate ENLYAQS” value was 0.0461, the “area with substrate ENLYCQS” value was 0.0484 and the “area with substrate ENLYDQS” value was 0.0568. For the same variant, the “area with substrate ENLYEQS” value was 0.0412, the “area with substrate ENLYGQS” value was 0.0613 and the “area with substrate ENLYHQS” value was 0.0501. For the same variant, the “area with substrate ENLYIQS” value was 0.0632, the “area with substrate ENLYMQS” value was 0.0557 and the “area with substrate ENLYNQS” value was 0.0471. The “area with substrate ENLYPQS” value was 0.0408, the “area with substrate ENLYQQS” value was 0.0475 and the “area with substrate ENLYRQS” value was 0.0475. For the same variant, the “area with substrate ENLYSQS” value was 0.0518, the “area with substrate ENLYTQS” value was 0.0565 and the “area with substrate ENLYVQS” value was 0.059. For the same variant, the “area with substrate ENLYWQS” value was 0.0484 and the “area with substrate ENLYYQS” value was 0.0494.
